Assays:
[1] = biological target: T1, Aβ1-42 protofibril (human); assay: graded binding, chimeric antibody (assay not named; ELISA in Example 1)
T1 construct: also called amyloid protofibril

[2] = biological target: T2, Aβ1-42 monomer (human); assay: as above
T2 construct: Preparation of the monomer is not described

binding result [1]: binds
binding result [2]: binds
B1: 15E11-2 (antibody, V domains shown)
VH: QVTLKESGPGILQPSQTLSLTCSFSGFSLSTSGMGVSWIRQPSGKGLEWLAHIYWDDDKRYNPSLKSRLTISKVTSRNQVFLKITSVDTADTATYYCARYDKGFPYWGQGTLVTVSA
VL: DTVMTQSPSSLAMSVGQKVTMSCKSSQSLLNSSNQKNYLAWYQQKPGQSPKLLIYFASTRESGVPDRFIGSGSGTDFTLTISSVQAEDLADYFCQQHYSTPLTFGAGTKLELK
notes: Chimeric antibody; the constant region of the chimeric form is not specified
